Hit rate of the full screen: of about 52,000 compounds, about 1,700 (3.3%) were called active. Rule as the data show it: active = survival mostly below about 52% (no sharp cut-off); inactive = mostly above about 56%. This is one part of the list.
What follows are molecules tested on Wild type (assay: growth inhibition of S. aureus wild type versus tarO mutant, primary screen, teichoic acid synthesis inhibitors, RN4220, OD600 (AID 463173)). Conditions: S. aureus RN4220 wild type/DeltatarO growth, OD600, 18 h, stronger effect = lower value, screened at 18.75 µg/mL (by protocol).

| Compound | survival |
| --- | --- |
| COCCN1CCN(Cc2ccc(C(=O)NC(C)C)cc2)C(=O)C1=O | inactive: 91% |
| CCCCn1c(SCC(=O)NCc2ccc(C)cc2)nc2c(sc3ccccc32)c1=O | inactive: 69% |
| CCN1CCN(c2cc(C)c3cc(NC(=O)c4ccc(OC)c(OC)c4)ccc3n2)CC1 | inactive: 65% |
| Cc1nc2c(c(C)nn2-c2ccccc2)c(C)c1CCC(=O)NCc1ccccc1 | inactive: 94% |
| CCc1cccc(NC(=O)C2CCN(S(=O)(=O)c3cccc(-c4noc(C)n4)c3)CC2)c1 | inactive: 80% |
| Cc1ccc(-c2n[nH]c(=S)c3ccccc23)cc1S(=O)(=O)N1CCN(C)CC1 | inactive: 106% |
| COc1ccc(C2c3cccn3CCN2S(=O)(=O)c2ccc([N+](=O)[O-])cc2)cc1 (stereo unspecified) | inactive: 68% |
| COc1ccc(C)cc1Nc1nc(N)c2cc(OC)c(OC)cc2n1 | inactive: 75% |
| CC(=O)c1cccc(NC(=O)c2nc(-c3ccccc3)n(-c3ccccc3C)n2)c1 | inactive: 83% |
| CCN1CCN(Cc2c(O)ccc3cc(-c4ccc(OC)cc4)c(=O)oc23)CC1 | inactive: 97% |
| Cc1ccc(S(=O)(=O)c2nc(-c3cccc(Cl)c3)oc2NCc2ccccc2)cc1 | inactive: 121% |
| Cc1cc(C)c(NC(=O)Cn2c(=O)n(Cc3ccc(C(=O)NCc4ccco4)cc3)c(=O)c3sccc32)c(C)c1 | inactive: 148% |
| Cc1nnc(N2CCCC(C(=O)NCCc3ccccc3)C2)c2nn(-c3ccccc3)c(C)c12 (stereo unspecified) | inactive: 69% |
| Cc1ccn2cc(-c3ccc(C)c(NS(=O)(=O)c4ccc(Cl)cc4)c3)nc2c1 | inactive: 58% |
| CN(C)CCNC(=O)c1ccc2c(c1)N(Cc1c(F)cccc1Cl)C(=O)c1ccccc1S2 | inactive: 105% |
| CCOC(=O)Cn1c(=O)oc2cc(S(=O)(=O)N3CCN(c4cc(C)ccc4C)CC3)ccc21 | inactive: 81% |
| COC(=O)c1cc2oc3ccccc3c2n1CC(=O)Nc1ccc(C)cc1C | inactive: 86% |
| CCOC(=O)c1c(NC(=O)c2ccc(C)c(C)c2)sc2c1CCCCC2 | active: 0% |
| Cn1cnc(S(=O)(=O)N2CCCC(C(=O)Nc3ccc(OC(F)(F)F)cc3)C2)c1 (stereo unspecified) | inactive: 19% |
| CCc1ccc(C(=O)NC2=NC(c3ccccc3F)CC(=O)N2)cc1 (stereo unspecified) | inactive: 166% |
| CCC(=O)N1CCc2cc(S(=O)(=O)NC(C(=O)Nc3cc(OC)cc(OC)c3)C(C)C)ccc21 (stereo unspecified) | inactive: 87% |
| COCCCNC(=O)c1ccc2nc(CCc3ccccc3)oc2c1 | inactive: 88% |

| Compound | survival |
| --- | --- |
| N#C/C(=C/c1ccc(-c2ccc(Br)cc2)o1)C(=O)NC1CCCCC1 | inactive: 127% |
| CCCN1CCN(CCCNC(=O)c2c(C)nn(-c3ccc(F)cc3)c2-n2cccc2)CC1 | inactive: 78% |
| CCOc1ccc(CNC(=O)Cn2c(=O)c3cccn3c3ccccc32)cc1 | inactive: 95% |
| Cc1c(Cl)ccc2sc(N3CCN(C(=O)CS(=O)(=O)c4ccccc4)CC3)nc12 | inactive: 124% |
| CCOc1ccc(OCC)c(NS(=O)(=O)c2ccc3c(c2)CCN3C(=O)C2CCC2)c1 | inactive: 71% |
| O=C(Cc1c(C(=O)O)[nH]c2ccccc12)Nc1cccc(C(F)(F)F)c1 | inactive: 69% |
| CC(C)c1ccc(-c2nnn(CC(=O)OC3CCCCC3)n2)cc1 | inactive: 111% |
| CC(C)(C)OC(=O)N1CCC2(CC1)C(C#N)=C(N)OC1=C2C(=O)CCC1 | inactive: 104% |
| CN1C(=O)/C(=C/c2ccco2)SC1=Nc1cccc(C(=O)O)c1 | inactive: 100% |
| Cc1ccc(OCC(=O)Nc2ccc(-c3nc4ccccc4o3)cc2)c(C)c1 | inactive: 90% |
| CCn1cc2nc(SCc3cccc(C(F)(F)F)c3)n(Cc3ccc(C)cc3)c(=O)c2n1 | inactive: 83% |
| O=C(NCc1ccc(Cl)cc1Cl)c1cccc(N2CCCS2(=O)=O)c1 | inactive: 69% |
| COc1ccc(-c2cc(C(=O)Nc3cnn(Cc4ccc(F)cc4)c3)no2)cc1OC | inactive: 75% |
| Cc1cc(Br)ccc1NC(=O)C1CC(O)CN1C(=O)OCc1ccccc1 (stereo unspecified) | inactive: 103% |
| Cc1cc(F)ccc1NC(=O)c1c(C)oc2c1C1=NCCN1C=N2 | inactive: 135% |
| CCc1ccccc1NC(=O)CSc1nc2c(c(=O)[nH]1)CN(Cc1ccccc1OC)CC2 | inactive: 86% |
| COc1cc2c(cc1NC(=O)C(C)Oc1ccccc1)oc1ccccc12 (stereo unspecified) | active: 1% |
| COc1ccccc1-n1c(=O)n(C)c2c(C(N)=O)nc(-c3cc(OC)c(OC)c(OC)c3)nc21 | inactive: 119% |
| Cc1ccc(C)c(Cn2c(=O)n(CCCC(=O)NCc3ccc4c(c3)OCO4)c(=O)c3sccc32)c1 | inactive: 88% |
| O=C1CCCS(=O)(=O)CC1 | inactive: 102% |
| CCC1CN(C(=O)Nc2cc(Cl)ccc2C(=O)OC)c2ccccc2S1 (stereo unspecified) | inactive: 152% |
| COc1ccc(OC)c(NC(=O)COCc2cc(-c3ccc(F)cc3)on2)c1 | inactive: 74% |

| Compound | survival |
| --- | --- |
| CN(C(=O)c1nn(C)c2c1CS(=O)(=O)c1ccccc1-2)c1cccc(Cl)c1 | inactive: 82% |
| CCCSc1ncc(Cl)c(C(=O)N2CCN(c3ccc(OC)cc3)CC2)n1 | inactive: 85% |
| CC(C)Oc1ccc(C(=O)N2CCCCC2CCN2CCCCC2)cc1 (stereo unspecified) | inactive: 86% |
| CCOC(=O)c1ccc(NC(=O)N2C3CCC2CC(NC(=O)NC24CC5CC(CC(C5)C2)C4)C3)cc1 (stereo unspecified) | inactive: 116% |
| CCC(C)c1ccc(OCC(=O)Nc2ccc(-c3nc4ncccc4o3)cc2)cc1 (stereo unspecified) | inactive: 60% |
| CCOC(=O)c1ccc(NC(=O)c2c(NCc3cccc(OC)c3OC)sc3c2CCC3)cc1 | inactive: 68% |
| CCOC(=O)c1sc(N2C(=O)c3oc4ccc(F)cc4c(=O)c3C2c2ccc(O)cc2)nc1C (stereo unspecified) | inactive: 73% |
| CCCOc1ccc(CNC(=O)c2cc3ccccn3n2)cc1 | inactive: 136% |
| CCc1cccc(NC(=O)CCNS(=O)(=O)c2ccc3c(c2)CCN3C(C)=O)c1 | inactive: 76% |
| Cc1ccc(/C=C/c2onc(C)c2S(=O)(=O)N2CCC(C(=O)N(CCC(C)C)Cc3ccco3)CC2)cc1 | inactive: 86% |
| COc1ccc(N2CCN(CCCNC(=O)c3ccc4nc(N5CCCCC5)sc4c3)CC2)cc1 | inactive: 79% |
| Cc1ccc(N2C(=O)CSC23C(=O)N(CC(=O)Nc2ccccc2F)c2ccccc23)cc1C (stereo unspecified) | inactive: 73% |
| Cc1ccc(CNC(=O)c2ccc(CS(=O)(=O)c3ccccc3C)o2)cc1 | inactive: 76% |
| CCOC(=O)CSc1nc2cc3c(cc2c(=O)n1CCCCCC(=O)NCc1ccc(OC)cc1)OCO3 | inactive: 71% |
| CN(C)c1ccc(CNC(=O)c2ccc3nc(CCc4ccccc4)oc3c2)cc1 | inactive: 78% |
| COc1ccccc1NC(=O)Cn1c(=O)n(-c2ccc(C)cc2)c(=O)c2c1cnn2C | inactive: 83% |
| CCOc1ccc(NC(=O)c2oc3ccccc3c2NC(=O)c2cc3ccccc3o2)cc1 | inactive: 86% |
| COc1ccc(-n2nc(C(=O)Nc3cccc(Cl)c3)c3c4ccccc4n(C)c3c2=O)cc1Cl | inactive: 88% |
| CC(C)(C)c1ccc(-c2nnc(-c3ccccc3NC(=O)c3ccc(F)cc3F)o2)cc1 | inactive: 144% |
| O=C(Nc1ccc(Br)cc1)c1cccc(S(=O)(=O)N2CCc3ccccc32)c1 | inactive: 127% |
| CCCCCCC1CCC(C(=O)NC(C(=O)O)C(C)C)CC1 (stereo unspecified) | inactive: 59% |
| O=C(CSc1oc(-c2ccco2)nc1S(=O)(=O)c1ccc(Cl)cc1)Nc1ccc(F)cc1 | inactive: 94% |

| Compound | survival |
| --- | --- |
| CC(C)c1ccc(NC(=O)CSC2=Nc3ccccc3C3=NC(CC(=O)NC4CCCCC4)C(=O)N23)cc1 (stereo unspecified) | inactive: 83% |
| C=CCNC1CCS(=O)(=O)C1 (stereo unspecified) | inactive: 108% |
| COc1ccc(-c2nc3ccccc3n3c(-c4ccccc4)c4c(=O)n(C)c(=O)n(C)c4c23)cc1 | inactive: 80% |
| COc1ccc2c(Sc3ccc(Cl)cc3)c(C(=O)N3CCCCC3)[nH]c2c1 | inactive: 33% |
| CC(C)CCNS(=O)(=O)c1ccc(N2CCCCS2(=O)=O)cc1 | inactive: 85% |
| CCOc1ccc(C(=O)c2cn(CC(=O)Nc3ccc4c(c3)OCCO4)c3ccc(F)cc3c2=O)cc1 | inactive: 90% |
| C=CCN(C(=O)c1ccc2c(c1)nnn2C)c1ccccc1 | inactive: 105% |
| COc1ccc(NC(=O)Cn2c(=O)c3cc(Cl)ccc3n3nncc23)cc1 | inactive: 111% |
| Cc1cccc(C)c1OC(=O)CSc1nnc(CNC(=O)c2ccccc2)o1 | inactive: 100% |
| CN(C(=O)CSc1nc(C2CCCC2)nc2c1c(=O)n(C)c(=O)n2C)c1ccccc1 | inactive: 128% |
| CC1CCN(C(=O)CSc2nnc(-c3ccccc3)o2)CC1 | inactive: 69% |
| COCCCNC(=O)CSc1nc2cc3c(cc2c(=O)n1CCCCCC(=O)NCc1ccc(OC)cc1)OCO3 | active: 1% |
| CC(C)COC(=O)Cn1nnc2sc(-c3ccccc3)cc2c1=O | inactive: 88% |
| O=C(CSc1oc(-c2ccccc2)nc1S(=O)(=O)c1ccc(Cl)cc1)NC1CCCCC1 | inactive: 72% |
| CCCc1nnc(NC(=O)Cc2coc3ccc(C(C)C)cc23)s1 | inactive: 99% |
| COc1ccc(-n2nnc(-c3nsc(NC(=O)c4ccc(C)c(C)c4)n3)c2C)cc1Cl | inactive: 134% |
| CC1CCN(C(=O)c2ccc3c(c2)N(Cc2ccccc2)C(=O)c2ccccc2S3(=O)=O)CC1 | inactive: 96% |
| CN(C)c1ccc(N/C=C(\C#N)c2nc3ccccc3[nH]2)cc1 | inactive: 118% |
| Cc1ccc(NC(=O)c2cnc(SCC(=O)N3CCOCC3)n(C)c2=O)cc1C | inactive: 75% |
| O=C(CN1CCCN(S(=O)(=O)c2ccc(Br)cc2)CC1)Nc1cccc(C(F)(F)F)c1 | inactive: 64% |
